Results are given in words; binding and its absence hold for the method and conditions named. For some of these results: In cells and extracts the contact can be indirect. Some results given as binding are weak or reduced against the parent protein; the word gives no strength. For some of these results: Sequences can lack the tags named with a protein.
What was measured:
[1] = molecular target: ectoLRP4-Myc (extracellular domain of rat LRP4 fused to one Myc tag followed by a 6xHis tag) (rat) (UniProt Q9QYP1); assay: pull-down; ectoLRP4-Myc, ectoLRP6-Myc or ectoMuSK-Myc from conditioned media immobilised on protein G magnetic beads precoated with anti-Myc; incubated with 0.25 Ellman units of sucrose gradient-purified AChE-ColQ (A12) or AChE (G1), 4 °C overnight; bound AChE activity measured by the Ellman method; only the binder purified
[2] = molecular target: ColQ-Flag (rat collagen Q, ColQ1a, with a Flag epitope after amino acid 26) (rat) (UniProt O35167); assay: co-sedimentation; extracts (0.8 M NaCl, 1% CHAPS) of HEK 293T cells cotransfected with ColQ-Flag and AChE, run on 5 to 20% sucrose gradients with 0.8 M NaCl, 10 mM EDTA, 0.2% Brij-97; fractions assayed for AChE activity; profile not shown
[3] = molecular target: ColQ-Flag (rat collagen Q, ColQ1a, with a Flag epitope after amino acid 26) (rat) (UniProt O35167); assay: condition: also at a six times higher concentration than ectoLRP4-AP (not shown); ELISA; plate-binding assay (modified ELISA): ColQ-Flag or AdipoQ-Flag from HEK 293T lysates immobilised on anti-Flag precoated wells; AP or AP fusion proteins in conditioned media (10 to 100 nM, equal AP activity) in TBS-0.05% Tween, 1 mM MgCl2, overnight at 4 °C; bound AP activity read with pNPP at …
[4] = molecular target: ColQ-Flag (rat collagen Q, ColQ1a, with a Flag epitope after amino acid 26) (rat) (UniProt O35167); assay: SPR; Biacore 3000, CM5 chip with covalently coupled anti-Flag M2; ColQ-Flag from HEK 293T lysates immunocaptured (about 3900 RU); single injection of purified analyte at 750 nM in HBS-EP; reference surface (untransfected lysate) subtracted; response 30 s into dissociation; only the binder purified

By UniProt entry, the sequences of proteins in these tests, tags left out. Residues count along the entry.
UniProt Q9QYP1, residues 21-1723: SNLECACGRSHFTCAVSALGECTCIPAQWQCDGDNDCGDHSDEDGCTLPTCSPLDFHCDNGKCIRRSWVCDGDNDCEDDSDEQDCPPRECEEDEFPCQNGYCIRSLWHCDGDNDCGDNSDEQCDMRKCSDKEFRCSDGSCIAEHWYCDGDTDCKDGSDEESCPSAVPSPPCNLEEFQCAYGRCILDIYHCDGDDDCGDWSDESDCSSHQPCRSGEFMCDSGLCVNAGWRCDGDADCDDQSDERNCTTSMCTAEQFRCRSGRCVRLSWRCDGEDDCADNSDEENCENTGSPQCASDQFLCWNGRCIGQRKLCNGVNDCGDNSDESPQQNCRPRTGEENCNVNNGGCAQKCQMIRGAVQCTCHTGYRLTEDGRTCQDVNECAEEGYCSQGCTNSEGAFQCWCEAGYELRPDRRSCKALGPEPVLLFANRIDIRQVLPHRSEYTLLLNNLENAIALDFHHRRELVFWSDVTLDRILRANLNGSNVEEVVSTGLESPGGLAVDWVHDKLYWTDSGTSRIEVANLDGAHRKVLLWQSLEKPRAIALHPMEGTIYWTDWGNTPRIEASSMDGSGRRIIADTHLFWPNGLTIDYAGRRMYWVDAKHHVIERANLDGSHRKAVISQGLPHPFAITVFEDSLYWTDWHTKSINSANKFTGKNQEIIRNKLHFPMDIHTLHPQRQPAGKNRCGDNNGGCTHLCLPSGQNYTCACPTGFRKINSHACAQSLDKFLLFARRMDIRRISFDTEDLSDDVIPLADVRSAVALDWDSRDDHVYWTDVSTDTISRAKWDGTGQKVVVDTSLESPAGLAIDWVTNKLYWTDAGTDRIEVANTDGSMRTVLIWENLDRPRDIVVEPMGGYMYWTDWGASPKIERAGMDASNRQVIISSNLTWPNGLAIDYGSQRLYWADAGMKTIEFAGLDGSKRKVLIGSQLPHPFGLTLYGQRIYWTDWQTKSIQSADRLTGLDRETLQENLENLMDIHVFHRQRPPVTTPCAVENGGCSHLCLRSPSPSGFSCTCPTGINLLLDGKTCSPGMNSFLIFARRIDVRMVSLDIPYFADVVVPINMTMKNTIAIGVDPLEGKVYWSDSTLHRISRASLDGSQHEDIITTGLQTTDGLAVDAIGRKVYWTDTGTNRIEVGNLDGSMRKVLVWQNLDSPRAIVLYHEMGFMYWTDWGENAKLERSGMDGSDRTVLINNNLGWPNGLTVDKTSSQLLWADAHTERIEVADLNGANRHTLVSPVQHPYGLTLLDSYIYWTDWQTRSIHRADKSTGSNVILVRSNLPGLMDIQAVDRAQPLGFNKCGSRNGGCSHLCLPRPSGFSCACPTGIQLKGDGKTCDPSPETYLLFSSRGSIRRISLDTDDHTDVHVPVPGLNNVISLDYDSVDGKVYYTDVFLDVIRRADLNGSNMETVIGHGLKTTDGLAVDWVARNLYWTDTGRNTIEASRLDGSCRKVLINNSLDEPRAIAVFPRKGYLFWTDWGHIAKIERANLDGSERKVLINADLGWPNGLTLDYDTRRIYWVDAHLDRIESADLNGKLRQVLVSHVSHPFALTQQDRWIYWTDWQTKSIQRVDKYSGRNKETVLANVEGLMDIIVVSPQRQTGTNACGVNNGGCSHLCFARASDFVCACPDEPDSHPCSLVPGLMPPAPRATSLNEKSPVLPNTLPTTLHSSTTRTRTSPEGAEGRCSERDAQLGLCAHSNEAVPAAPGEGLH
UniProt O35167, residues 23-458: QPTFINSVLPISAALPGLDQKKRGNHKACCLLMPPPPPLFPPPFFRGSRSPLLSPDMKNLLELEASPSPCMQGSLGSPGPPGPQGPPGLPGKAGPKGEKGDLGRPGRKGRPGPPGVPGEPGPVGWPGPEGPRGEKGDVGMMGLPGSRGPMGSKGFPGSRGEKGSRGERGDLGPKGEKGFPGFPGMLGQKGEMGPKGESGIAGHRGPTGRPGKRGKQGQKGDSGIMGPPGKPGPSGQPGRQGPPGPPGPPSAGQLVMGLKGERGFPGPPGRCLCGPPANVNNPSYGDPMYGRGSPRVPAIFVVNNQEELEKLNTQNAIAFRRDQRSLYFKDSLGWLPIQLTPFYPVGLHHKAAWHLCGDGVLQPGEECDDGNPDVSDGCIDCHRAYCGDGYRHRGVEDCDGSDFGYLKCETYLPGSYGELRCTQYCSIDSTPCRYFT

B1: AChE globular G1 forms (monomeric, ColQ-free acetylcholinesterase) (enzyme, UniProt P37136 32-614)
chain: EGREDPQLLVRVRGGQLRGIRLKAPGGPVSAFLGIPFAEPPVGSRRFMPPEPKRPWSGILDATTFQNVCYQYVDTLYPGFEGTEMWNPNRELSEDCLYLNVWTPYPRPTSPTPVLIWIYGGGFYSGASSLDVYDGRFLAQVEGTVLVSMNYRVGTFGFLALPGSREAPGNVGLLDQRLALQWVQENIAAFGGDPMSVTLFGESAGAASVGMHILSLPSRSLFHRAVLQSGTPNGPWATVSAGEARRRATLLARLVGCPPGGAGGNDTELISCLRTRPAQDLVDHEWHVLPQESIFRFSFVPVVDGDFLSDTPDALINTGDFQDLQVLVGVVKDEGSYFLVYGVPGFSKDNESLISRAQFLAGVRIGVPQASDLAAEAVVLHYTDWLHPEDPAHLRDAMSAVVGDHNVVCPVAQLAGRLAAQGARVYAYIFEHRASTLTWPLWMGVPHGYEIEFIFGLPLDPSLNYTVEERIFAQRLMQYWTNFARTGDPNDPRDSKSPRWPPYTTAAQQYVSLNLKPLEVRRGLRAQTCAFWNRFLPKLLSATDTLDEAERQWKAEFHRWSSYMVHWKNQFDHYSKQERCSDL
binding [1]: no binding (tested: 0.25 Ellman unit) | binding [2]: binds

B2: ectoMuSK-AP (rat MuSK ectodomain fused to alkaline phosphatase) (domain or fragment, UniProt Q62838 22-494)
chain: EKLPKAPVITTPLETVDALVEEVATFMCAVESYPQPEISWTRNKILIKLFDTRYSIRENGQLLTILSVEDSDDGIYCCTANNGVGGAVESCGALQVKMKPKITRPPINVKIIEGLKAVLPCTTMGNPKPSVSWIKGDSALRENSRIAVLESGSLRIHNVQKEDAGQYRCVAKNSLGTAYSKLVKLEVEVFARILRAPESHNVTFGSFVTLRCTAIGMPVPTISWIENGNAVSSGSIQENVKDRVIDSRLQLFITKPGLYTCIATNKHGEKFSTAKAAATVSIAEWSKSQKESKGYCAQYRGEVCDAVLVKDSLVFFNTSYPDPEEAQELLIHTAWNELKAVSPLCRPAAEALLCNHLFQECSPGVLPTPMPICREYCLAVKELFCAKEWLAMEGKTHRGLYRSGMHFLPVPECSKLPSMHQDPTACTRLPYLDYKKENITTFPSITSSKPSVDIPNLPASTSSFAVSPAYSMT
binding [3]: no binding

B3: purified recombinant mouse ectoMuSK Fc Chimera (R&D Systems) (Fc fusion, UniProt Q61006 22-494)
chain: EKLPKAPVITTPLETVDALVEEVATFMCAVESYPQPEISWTRNKILIKLFDTRYSIRENGQLLTILSVEDSDDGIYCCIANNGVGGAVESCGALQVKMKPKITRPPINVKIIEGLKAVLPCTTMGNPKPSVSWIKGDNALRENSRIAVLESGSLRIHNVQKEDAGQYRCVAKNSLGTAYSKLVKLEVEVFARILRAPESHNVTFGSFVTLRCTAIGIPVPTISWIENGNAVSSGSIQESVKDRVIDSRLQLFITKPGLYTCIATNKHGEKFSTAKAAATVSIAEWSKSQKDSQGYCAQYRGEVCDAVLAKDALVFFNTSYRDPEDAQELLIHTAWNELKAVSPLCRPAAEALLCNHLFQECSPGVVPTPMPICREYCLAVKELFCAKEWQAMEGKAHRGLYRSGMHLLPVPECSKLPSMHRDPTACTRLPYLDYKKENITTFPSITSSRPSADIPNLPASTSSFAVSPAYSMT
binding [4]: no binding (tested: 750 nM)
